Measurements taken from PMC4336329 (PLoS ONE, 2015).
Out of some 310,000 compounds screened, about 2,200 (0.71%) showed an effect of 50% or more. The effect is printed as a negative number. Some of the results follow.

Target: human ether-à-go-go-related gene (hERG) potassium channel (human, UniProt Q12809)
Assay: primary screen, population patch clamp on CHO cells stably expressing hERG

Sequence of human ether-à-go-go-related gene (hERG) potassium channel (Q12809 whole entry, looked up): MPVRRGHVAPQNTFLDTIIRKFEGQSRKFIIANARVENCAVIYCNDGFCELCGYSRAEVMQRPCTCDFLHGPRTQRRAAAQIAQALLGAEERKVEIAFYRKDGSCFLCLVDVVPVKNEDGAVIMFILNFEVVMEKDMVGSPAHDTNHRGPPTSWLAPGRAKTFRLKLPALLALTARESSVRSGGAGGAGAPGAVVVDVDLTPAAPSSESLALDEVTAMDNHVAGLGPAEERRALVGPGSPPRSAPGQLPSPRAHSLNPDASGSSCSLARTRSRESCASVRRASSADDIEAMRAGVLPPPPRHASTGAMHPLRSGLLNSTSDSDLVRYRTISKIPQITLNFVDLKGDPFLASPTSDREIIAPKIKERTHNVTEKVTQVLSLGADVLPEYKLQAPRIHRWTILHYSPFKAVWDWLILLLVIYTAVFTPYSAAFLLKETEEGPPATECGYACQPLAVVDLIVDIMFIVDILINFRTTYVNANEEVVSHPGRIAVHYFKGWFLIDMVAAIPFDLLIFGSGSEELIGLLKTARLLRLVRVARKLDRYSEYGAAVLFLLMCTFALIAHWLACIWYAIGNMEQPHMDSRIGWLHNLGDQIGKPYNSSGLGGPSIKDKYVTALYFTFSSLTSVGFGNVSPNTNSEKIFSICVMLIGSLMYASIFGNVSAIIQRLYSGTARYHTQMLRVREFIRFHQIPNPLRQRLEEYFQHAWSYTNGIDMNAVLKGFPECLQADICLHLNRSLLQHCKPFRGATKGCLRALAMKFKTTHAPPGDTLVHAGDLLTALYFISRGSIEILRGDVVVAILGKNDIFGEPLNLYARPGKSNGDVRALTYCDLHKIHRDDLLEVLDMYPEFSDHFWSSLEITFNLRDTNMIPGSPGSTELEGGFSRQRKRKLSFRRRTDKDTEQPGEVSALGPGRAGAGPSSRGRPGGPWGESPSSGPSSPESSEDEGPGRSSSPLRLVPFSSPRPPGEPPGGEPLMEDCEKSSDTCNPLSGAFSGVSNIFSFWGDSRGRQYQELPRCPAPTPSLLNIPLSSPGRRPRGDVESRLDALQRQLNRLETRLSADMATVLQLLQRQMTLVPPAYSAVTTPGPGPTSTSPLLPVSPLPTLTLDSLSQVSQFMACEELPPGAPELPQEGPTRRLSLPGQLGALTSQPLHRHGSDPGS

Row | Structure (SMILES) | hERG current change (%, negative = inhibition) at 1uM [%]
1 | Cc1nc(=O)c(-c2ccccc2)c(C)n1CC1CCCO1 (stereo not shown) | 0.813
2 | Cc1cccn2c(CN(C)CC3CCCCO3)c(C(=O)N3CCCCC3)nc12 (stereo not shown) | 11.6
3 | CCOC(=O)c1ccc(NC(=O)C(=O)NCc2ccccn2)cc1 | 12.8
4 | COCCN(C(=O)Cc1cccs1)c1nnc(-c2ccncc2)s1 | 7.57
5 | COc1ccc(OC)c(Nc2cc(-c3ccccc3)nc(N)n2)c1 | 3.31
6 | NC(=O)CC(NC(=O)Cc1cccc2ccccc12)c1ccc(N2CCN(c3ccc(F)cc3)CC2)c([N+](=O)[O-])c1 (stereo not shown) | 14.2
7 | COc1ccc(-n2c(C)cc(/C=C3/SC(=S)N(C)C3=O)c2C)cc1 | 17
8 | Nc1cc(C(=O)OCC(=O)NNC(=O)c2cccs2)ccc1Cl | 13.5
9 | CCC(=O)Nc1cc(=O)[nH]c2nc(-c3ccc(Cl)cc3)nn12 | 19.5
10 | CC1(C(=O)O)C=CC2(CCCCC2)N1C(=O)c1ccccc1 (stereo not shown) | 13.7
11 | Cc1ccc(-c2nnc(N)o2)cc1 | 15.1
12 | O=C(NCCOc1ccccc1)c1ccccc1SCC(=O)N1CCCC1 | 18.2
13 | O=C(Nc1nccs1)C1CC(=O)N(CCc2ccc(F)cc2)C1 (stereo not shown) | 9.8
14 | CN1CCN(C(=O)COc2ccc3ccccc3c2)CC1 | 10.7
15 | COc1ccc(-c2c(C#Cc3ccsc3)c3ccccc3n2C)cc1 | 13.2
16 | COc1ccc(CN2C(=O)c3cccnc3C2=O)cc1S(=O)(=O)N(C)c1ccc(C)cc1 | 15.8
17 | O=C(NC1CCCC1)C1CC(=O)N(C2CCCCCCC2)C1 (stereo not shown) | 6.02
18 | CCOC(=O)C(=O)c1cn(C2OCC(OC(C)=O)C(OC(C)=O)C2OC(C)=O)c2ccccc12 (stereo not shown) | 14.9
19 | CSc1ccc(CNCc2ccc3c(c2)OCO3)cc1.O=C(O)C(=O)O | 6.18
20 | CCOc1ccccc1C(=O)N(Cc1ccc(C)o1)C1CCS(=O)(=O)C1 (stereo not shown) | 12.3
21 | Cc1c(NC(=O)C2CCCN2S(=O)(=O)c2ccccc2)c(=O)n(-c2ccccc2)n1C (stereo not shown) | 15.5
22 | CC12CC3(C)CC(C)(C1)CC(C(=O)Nc1nn[nH]n1)(C2)C3 | 9.23

Row | Structure (SMILES) | hERG current change (%, negative = inhibition) at 1uM [%]
23 | CN(C)c1nc(C(=O)Nc2ccccc2)nc(N(C)C)n1 | 12
24 | Fc1cccc(/C=N/N=C/c2cccc(F)c2)c1.O | 16.7
25 | COc1ccc(-c2csc(NC(=O)c3ccccc3NS(=O)(=O)c3ccc(C)cc3)n2)cc1 | 6.88
26 | O=C(N/N=C/c1ccco1)c1cc(-c2cccc(Br)c2)nc2ccccc12 | 11.2
27 | Cc1oc(C(C)(C)C)cc1C(=O)N1CCN(C(c2ccccc2)c2ccccc2)CC1 | 5.55
28 | CCOc1ccc(/C(O)=C2/C(=O)C(=O)N(c3ccccn3)C2c2ccc(F)cc2)c(C)c1 (stereo not shown) | 8.25
29 | CC(C)CC(=O)NC(=S)Nc1sc2c(c1C(N)=O)CCC2 | 10.9
30 | CCCCC/C=C/C1=CC(=O)C[C@H](c2ccc(OC)c(OC)c2)C1 | 9.99
31 | CC1(C)CN(c2ccccc2)N(C(=O)c2ccc(C#N)cc2)C1=O | -20
32 | CC(C)(CNC(=O)Cc1ccc(Br)cc1)N1CCOCC1 | 16.3
33 | C=CCNC(=O)CN1CCC(NC(=O)c2ccco2)CC1 | 2.47
34 | CCCCCC(=O)Nc1ccc(-c2csc(C)n2)cc1 | 13.6
35 | O=C(O)CC(c1ccc(Cl)cc1)n1cccc1 (stereo not shown) | 4.8
36 | COc1ccc(/C=C/C(=O)N(CC(C)C)C2CCS(=O)(=O)C2)cc1 (stereo not shown) | 6.56
37 | CCOc1ccc(S(=O)(=O)NCc2ccccn2)cc1NC(=O)c1ccccc1F | 15.7
38 | CCO[C@H]1OC(C(=O)N2CCN(C)CC2)=C[C@@H](c2ccc3c(c2)OCO3)[C@@H]1CCCO | -2.6
39 | CC1=NN(c2ccc(C)cc2C)C(=O)C1C(c1ccccc1O)C1C(=O)N(c2ccc(C)cc2C)N=C1C (stereo not shown) | 18.7
40 | CCN(CC)c1ccc(/C=N/NC(=O)OC(C)(C)C)cc1 | 13.1
41 | COc1cc2ncnc(NCc3ccc(C)o3)c2cc1OC | 10.2
42 | Cc1cc(C(=O)OCC(=O)N2CCOCC2)ccc1[N+](=O)[O-] | 14.5
43 | COc1ccc(C(=O)NNC(=S)NC(=O)c2cccnc2)cc1 | 7.27
44 | CC(C)(C)SCCNC(=O)COc1ccccc1 | 10

Row | Structure (SMILES) | hERG current change (%, negative = inhibition) at 1uM [%]
45 | O=C(N/N=C/c1ccc(O)cc1)c1cc(-c2ccccc2)nc2ccccc12 | 11.1
46 | CCCCCC(=O)OC(CN1CCCCC1)CN1CCCC1=O.Cl (stereo not shown) | 7.03
47 | COc1ccc(/C=C/C(=O)Oc2cc(O)cc(O)c2)cc1 | 16.8
48 | Cc1ccccc1NC(=O)N1C2CCCC1CC(NC(=O)C1CC1)C2 (stereo not shown) | 8.55
49 | CCc1cc(=O)oc2cc(C)cc(OCC(=O)NC3CCN(Cc4ccccc4)CC3)c12 | -7.14
50 | O=S(=O)(NCC(c1cccnc1)N1CCN(Cc2ccccc2)CC1)c1ccc(Cl)cc1 (stereo not shown) | -60.6
51 | O=C(COC(=O)c1cc(=O)c2ccccc2o1)NC1CCCCC1 | 17.8
52 | Cn1c(=O)c2c(nc(CN3CCN(Cc4ccccc4)CC3)n2CCN2CCOCC2)n(C)c1=O | -2.01
53 | Cc1nc(-c2ccc(S(=O)(=O)Oc3ccc(Cl)cc3Cl)s2)cs1 | 10.4
54 | CCOC(=O)C1=C(C)N=c2s/c(=C\c3ccc(O)c([N+](=O)[O-])c3)c(=O)n2C1c1ccccc1OC (stereo not shown) | -32
55 | CCCOc1ccc(C2C(C(=O)c3ccc(C)o3)=C(O)C(=O)N2Cc2cccnc2)cc1 (stereo not shown) | 12.2
56 | CCCCOc1ccc(C(=O)NCC(=O)NCC(c2cccs2)N2CCOCC2)cc1 (stereo not shown) | 15.4
57 | COc1ccc2c(c1OC)C(=O)N1N=C(c3ccc(O)cc3)CC21 (stereo not shown) | 3.01
58 | CCOc1ccc(NCc2nnc(SCC(=O)Nc3cc(C)on3)n2-c2ccc(OC)cc2)cc1 | 1.27
59 | CN1CCN(c2c(F)cc([N+](=O)[O-])c(N)c2Br)CC1 | 0.789
60 | CCn1c(=O)c2c(nc3n2CCCN3Cc2ccccc2)n(C)c1=O | 13
61 | CC(=O)c1ccc(OCCCCCCCOc2ccc(C(C)=O)cc2)cc1 | 12.9
62 | CCn1nnc(-c2ccccc2NC(=O)c2cnccn2)n1 | 4.95
63 | CCOc1ccc(CNC(=O)CCn2c(=O)oc3ccccc32)cc1OC | 9.27
64 | O=C(CSc1nnc(-c2ccc(F)cc2)o1)Nc1ccc(S(=O)(=O)N2CCCC2)cc1 | 8.51
65 | CC1CCN(c2c(NCC3CCC(C(=O)NCCc4ccccc4)CC3)c(=O)c2=O)CC1 (stereo not shown) | 6.38
66 | CCc1ccc(C(C)NC(=O)c2ccncc2)cc1 (stereo not shown) | 11.4

Row | Structure (SMILES) | hERG current change (%, negative = inhibition) at 1uM [%]
67 | CSc1nc2[nH]c3c(c2c2nnnn12)CCCC3 | 5.45
68 | O=C(O)c1ccc(N2CCCCS2(=O)=O)cc1 | 11.9
69 | COCC(C)n1c(C)cc(C(=O)CN2c3cccc4cccc(c34)S2(=O)=O)c1C (stereo not shown) | 7.82
70 | Cc1cc(C)c(C2=CSC3=NS(=O)(=O)CCN23)c(C)c1 | 10.7
71 | Cc1cc(C)c(Cc2c(C)nc3c(C(=O)NCc4ccco4)cnn3c2C)c(C)c1 | 5.71
72 | Cc1ccc(N2C(=O)C3CC(c4ccccc4)=C4C5C=CC(C6C(=O)N(c7ccc(C)cc7)C(=O)C56)C4C3C2=O)cc1 (stereo not shown) | -74.5
73 | C=CCN(c1ccccc1C(=O)O)S(=O)(=O)c1ccc(C)cc1 | 13.1
74 | CCCC(=O)NCCSC | 14.3
75 | CC(C)CNS(=O)(=O)c1ccc(CC(C)C)cc1 | 13.5
76 | CC(C)c1ccc(N2CCN(C(=O)c3ccccc3NC(=O)/C=C\C(=O)O)CC2)cc1 | 7.39
77 | O=C(CCCc1ccccc1)NCCCN1CCOCC1 | 11.4
78 | Cl.O=C(CN1CCN(C(=O)c2cccs2)CC1)NC1CCCCC1 | 7.39
79 | COc1ccc(C[C@H]2CN3C(=NC[C@@H]3Cc3ccc(O)cc3)N2C[C@H](C)NC(=O)CCC2CCCCC2)cc1 | -14.9
80 | CN1CCN(c2ccc(Cl)cc2NC(=O)c2cc(=O)[nH]c3ccccc23)CC1 | 7.98
81 | Cn1c(=O)cc(OCC(=O)NCCCN2CCN(Cc3ccccc3)CC2)c2ccccc21 | 3.12
82 | Fc1ccc(CNCc2ccco2)cc1 | 15.7
83 | C=CCN1C(=O)/C(=C\c2cccs2)C(C(=O)OC)=C1C | 10.5
84 | COc1cccc(C(=O)C2CCCN(Cc3ccccn3)C2)c1 (stereo not shown) | -0.481
85 | Cc1c(Cc2ccccc2)c(=O)oc2cc(OCC(=O)N[C@@H](Cc3ccccc3)C(=O)O)ccc12 | -0.192
86 | C=CCc1cc(C(=O)N2CCCCC2)ccc1O | 15.2
87 | O=C(NCc1ccco1)c1ccc2ccccc2n1 | 12
88 | Cc1ccc(S(=O)(=O)NCC(=O)N/N=C/c2ccc(Cl)cc2)cc1 | -2.22
